The list shows a part of the results.
What was measured:
HSkMC = human skeletal muscle cells; assay: cytotoxicity call (relative viability < 0.9); conditions: 10 µM
HepG2 = assay: cytotoxicity call (relative viability < 0.9); conditions: 10 µM
S. aureus RN4220 = assay: growth inhibition call (relative growth <= 0.2); conditions: 50 µM

Cc1noc(C)c1NC(=O)N(C)C[C@@H]1Oc2ccc(NC(=O)Nc3cccc4ccccc34)cc2CC(=O)N([C@@H](C)CO)C[C@H]1C
cytotoxicity call (HSkMC): inactive
cytotoxicity call (HepG2): inactive
growth inhibition call (S. aureus RN4220): inactive

C[C@H]1CCCCO[C@@H](CN(C)C(=O)C2CCCCC2)[C@@H](C)CN([C@@H](C)CO)C(=O)c2cc(NC(=O)CCC(F)(F)F)ccc2O1
cytotoxicity call (HSkMC): inactive
cytotoxicity call (HepG2): inactive
growth inhibition call (S. aureus RN4220): inactive

CN1C(=O)c2cc(NC(=O)c3ccc(C(F)(F)F)cc3)ccc2OC[C@@H]2O[C@@H](CC(=O)NC3Cc4ccccc4C3)CC[C@@H]21
cytotoxicity call (HSkMC): inactive
cytotoxicity call (HepG2): active
growth inhibition call (S. aureus RN4220): inactive

C[C@@H]1CCCCO[C@@H](CN(C)Cc2ccc(C(F)(F)F)cc2)[C@@H](C)CN([C@@H](C)CO)C(=O)c2cc(NS(=O)(=O)c3ccc(F)cc3)ccc2O1
cytotoxicity call (HSkMC): inactive
cytotoxicity call (HepG2): inactive
growth inhibition call (S. aureus RN4220): inactive

C[C@]1(C(=O)NCc2ccccc2)c2ccccc2C(=O)N(Cc2ccccc2)[C@H]1c1ccc(COC(=O)NCCCCCC(=O)NO)cc1
cytotoxicity call (HSkMC): inactive
cytotoxicity call (HepG2): inactive
growth inhibition call (S. aureus RN4220): inactive

CO[C@H]1[C@H](O)[C@@H](O)[C@@H](O)[C@H](O)[C@@H]1O
cytotoxicity call (HSkMC): inactive
cytotoxicity call (HepG2): inactive
growth inhibition call (S. aureus RN4220): inactive

C#CCN([C@H](/C=C/C1CC1)[C@@H](O)Cc1ccccc1)[C@@H](Cc1ccc(-n2cc(C(=O)NO)nn2)cc1)C(=O)OC
cytotoxicity call (HSkMC): inactive
cytotoxicity call (HepG2): inactive
growth inhibition call (S. aureus RN4220): inactive

Cc1ccc(S(=O)(=O)N(C)C[C@H]2Oc3c(NS(=O)(=O)c4ccc(F)cc4)cccc3C(=O)N([C@@H](C)CO)C[C@H]2C)cc1
cytotoxicity call (HSkMC): inactive
cytotoxicity call (HepG2): inactive
growth inhibition call (S. aureus RN4220): inactive

C[C@@H]1CN([C@@H](C)CO)C(=O)c2cc(NC(=O)Nc3cccc4ccccc34)ccc2O[C@@H](C)CCCCO[C@H]1CN(C)C
cytotoxicity call (HSkMC): inactive
cytotoxicity call (HepG2): inactive
growth inhibition call (S. aureus RN4220): inactive

C[C@@H]1CCCCO[C@@H](CN(C)C(=O)Nc2ccc(C(F)(F)F)cc2)[C@H](C)CN([C@H](C)CO)C(=O)c2cc(NS(=O)(=O)c3ccc(Cl)cc3)ccc2O1
cytotoxicity call (HSkMC): active
cytotoxicity call (HepG2): inactive
growth inhibition call (S. aureus RN4220): inactive

Cc1noc(C)c1NC(=O)Nc1ccc2c(c1)C(=O)N([C@@H](C)CO)C[C@H](C)[C@@H](CN(C)Cc1ccc(-c3ccccc3)cc1)O2
cytotoxicity call (HSkMC): inactive
cytotoxicity call (HepG2): inactive
growth inhibition call (S. aureus RN4220): inactive

C[C@H]1CCCCO[C@H](CN(C)C(=O)Nc2ccc(F)cc2)[C@@H](C)CN([C@@H](C)CO)C(=O)c2cc(NC(=O)c3ccncc3)ccc2O1
cytotoxicity call (HSkMC): inactive
cytotoxicity call (HepG2): inactive
growth inhibition call (S. aureus RN4220): inactive

COC(=O)C1=C(C#N)NC(C)=C(C(=O)OC(C)C)C1c1cccc([N+](=O)[O-])c1 (configuration not stated)
cytotoxicity call (HSkMC): inactive
cytotoxicity call (HepG2): active
growth inhibition call (S. aureus RN4220): inactive

C[C@H]1CN([C@@H](C)CO)C(=O)Cc2cc(NS(=O)(=O)c3cccs3)ccc2O[C@@H]1CN(C)C(=O)Nc1cccc2ccccc12
cytotoxicity call (HSkMC): inactive
cytotoxicity call (HepG2): inactive
growth inhibition call (S. aureus RN4220): inactive

O=C(C[C@@H]1CC[C@H]2[C@@H](COC[C@H](O)CN2S(=O)(=O)c2cccc(Cl)c2)O1)NCCCN1CCOCC1
cytotoxicity call (HSkMC): inactive
cytotoxicity call (HepG2): inactive
growth inhibition call (S. aureus RN4220): inactive

C[C@@H]1CN([C@H](C)CO)C(=O)c2cc(NC(=O)NC3CCCCC3)ccc2O[C@@H](C)CCCCO[C@@H]1CN(C)Cc1ccc(C(=O)O)cc1
cytotoxicity call (HSkMC): inactive
cytotoxicity call (HepG2): inactive
growth inhibition call (S. aureus RN4220): inactive

CNC(=O)[C@H]1O[C@H](n2cnc3c(NCc4cccc(I)c4)ncnc32)[C@@H](O)[C@@H]1O
cytotoxicity call (HSkMC): inactive
cytotoxicity call (HepG2): inactive
growth inhibition call (S. aureus RN4220): inactive

C[C@H](CO)N1C[C@H](C)[C@@H](CN(C)Cc2ccc(F)cc2)OCc2ccccc2-c2c(n(C)c3ccccc23)C1=O
cytotoxicity call (HSkMC): inactive
cytotoxicity call (HepG2): inactive
growth inhibition call (S. aureus RN4220): inactive

C[C@@H]1CN([C@@H](C)CO)C(=O)c2cc(C#CCN(C)C)cnc2O[C@H]1CN(C)C(=O)CN1CCOCC1
cytotoxicity call (HSkMC): inactive
cytotoxicity call (HepG2): inactive
growth inhibition call (S. aureus RN4220): inactive

CCCNC(=O)N(C)C[C@@H]1Oc2cc(C#Cc3cccc(F)c3)ccc2S(=O)(=O)N([C@@H](C)CO)C[C@@H]1C
cytotoxicity call (HSkMC): inactive
cytotoxicity call (HepG2): inactive
growth inhibition call (S. aureus RN4220): inactive

COc1ccccc1-c1cnc2c(c1)C(=O)N([C@H](C)CO)C[C@H](C)[C@@H](CN(C)C(=O)c1cccnc1)O2
cytotoxicity call (HSkMC): inactive
cytotoxicity call (HepG2): inactive
growth inhibition call (S. aureus RN4220): inactive

CC(C)NC(=O)Nc1ccc2c(c1)C(=O)N([C@@H](C)CO)C[C@@H](C)[C@@H](CN(C)Cc1ccc(Oc3ccccc3)cc1)O2
cytotoxicity call (HSkMC): inactive
cytotoxicity call (HepG2): inactive
growth inhibition call (S. aureus RN4220): inactive

CS(=O)(=O)N1C[C@@H](O)COC[C@@H]2O[C@H](CC(=O)NCc3ccccc3)CC[C@H]21
cytotoxicity call (HSkMC): inactive
cytotoxicity call (HepG2): inactive
growth inhibition call (S. aureus RN4220): inactive

COc1ccccc1S(=O)(=O)N[C@@H]1CC[C@@H](CCNC(=O)C2CC2)O[C@@H]1CO
cytotoxicity call (HSkMC): inactive
cytotoxicity call (HepG2): inactive
growth inhibition call (S. aureus RN4220): inactive
